Experimental data reported in PubChem BioAssay AID1625 (Sanford-Burnham Center for Chemical Genomics, 2009).
Values joined by “and” are separate entries in the source; they are usually repeats but may differ in a detail not shown here. Equal entries are not always repeated. The list shows a part of the results. Further columns of the screen follow, without active or inactive calls. Most of these compounds were active or inconclusive in the main read-out, so they are no random draw.

Test: up-regulation of insulin promoter-GFP reporter – imaging, high-content screening, mouse beta cells (AID 1625);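 note: total cells summed across four imaged fields per well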
Details: MIN6 insulin promoter-GFP reporter, measured here: cytotoxicity, nuclei count, at 5 µM

SMILES	cell count
OC(c1cc(-c2ccc(C(F)(F)F)cc2)nc(C(F)(F)F)c1)C1CCCCN1 (centres undefined)	483 cells
CCOC(=O)c1cc(C(=O)NCc2ccc(Cl)cc2Cl)nn1C	488 cells
O=C(CCS(=O)(=O)c1ccc(Br)cc1)Nc1cc(F)ccc1F	284 cells
COc1ccc(N(C(=O)Cc2cccs2)C2C=CS(=O)(=O)C2)cc1 (centres undefined)	1310 cells
CCc1ccc2nc3sc(C(=O)N4CCc5ccccc54)c(N)c3cc2c1	1050 cells
Cc1nnc(N/N=C/c2cc([N+](=O)[O-])c(N3CCC(C)CC3)cc2N2CCC(C)CC2)n1N	230 cells
COCCCNc1c2c3c(cccc3[nH]c1=O)C(=O)c1ccccc1-2	812 cells
Cc1nn(-c2c(Cl)cc(Cl)cc2Cl)c(=O)c2ccccc12	908 cells
COc1cc2c(cc1OC)-c1nncn1C(C)(C)C2	1430 cells
COc1ccc(CS(=O)/C(Cl)=C(/Cl)C(=O)Nc2ccc(OC)nc2)cc1 (centres undefined)	441 cells
CC(NC(=O)/C(C#N)=C1\N=C(NC(=O)c2cccs2)c2ccccc21)c1ccccc1 (centres undefined)	1300 cells
CN1/C(=C/C=C(C#N)C#N)C=Cc2ccccc21	1450 cells
O=c1c2ccccc2nc(N/N=C/c2c(O)ccc3ccccc23)n1O	438 cells
COc1ccc(C(=O)C(CCC(CNC(C)(C)C)C(=O)c2ccc(OC)cc2)CNC(C)(C)C)cc1 (centres undefined)	445 cells
COc1ccc(CCNCc2csc3nc4ccccc4n23)cc1OC	197 cells
Nc1c(C(=O)NC2CCCC2)sc2nc(-c3cccs3)ccc12	1260 cells
CN1/C(=C\C(=O)COC(=O)Cn2nnc(-c3ccccc3)n2)C(C)(C)c2ccccc21	363 cells
CCCCNC(=S)NC(=O)c1ccc(Cl)cc1Cl	1380 cells
Cc1ccc(Cn2c(SCC(C)C)nc3c2c(=O)[nH]c(=O)n3C)cc1	497 cells
CC(O)CNc1nc2c(c(=O)n(C)c(=O)n2C)n1Cc1cccc(Br)c1 (centres undefined)	419 cells
CN(C)c1cc[n+](CC(=O)c2ccc(-c3ccccc3)cc2)cc1	470 cells
C=CCn1c(SCCOc2ccc(OC)cc2)nnc1C(C)NC(=O)Cc1ccc(OC)cc1 (centres undefined)	755 cells
O=[N+]([O-])c1ccc(Sc2cccc[n+]2[O-])c2nonc12	301 cells
CCC(C)(C)c1ccc(OCCCC[n+]2cccc(C)c2)c(C(C)(C)CC)c1	212 cells
O=[N+]([O-])c1ccc(N(c2ccccc2)c2ccccc2)cc1	980 cells
Cc1ccccc1Oc1cc(-n2ncc(Cl)c(Cl)c2=O)ncn1	330 cells

SMILES	cell count
CCN1CC=C2C(C1)C(c1ccc(Cl)s1)C(C#N)=C(N)C2(C#N)C#N (centres undefined)	1070 cells
CC(=O)c1c(C)[nH]c(-c2ccccc2)nc1=S	1410 cells
CCCCCCCn1c2c(c(=N)c3c1CCC3)CCCC2	175 cells
CCOC(=O)CC1C(=O)NCCN1S(=O)(=O)c1ccc(Cl)cc1Cl (centres undefined)	1350 cells
CC1CCC(C(C)C)C(OC(=O)Cn2c(-c3ccccc3)[n+](C)c3ccccc32)C1 (centres undefined)	478 cells
COc1cccc(/C=N/NC(=O)c2oc3nc(-c4ccccc4)cc(-c4ccco4)c3c2N)c1	830 cells
CC(C)c1ccc(NC(=O)CSc2nc3c(c(=O)[nH]2)CCC3)cc1	432 cells
COc1ccc(OC)c(S(=O)(=O)N2CCCCC2C(=O)O)c1 (centres undefined)	455 cells
Cc1ccc(C(C)C)c(OCc2ccc(C(=O)N/N=C/c3cccc(O)c3O)cc2)c1	322 cells
CCN(CC)c1ccc2cc(S(=O)(=O)c3ccc(Cl)cc3)c(=O)oc2c1	1190 cells
CCOc1ccc(NC(=O)C2CCC(C)(C(=O)O)C2(C)C)cc1 (centres undefined)	906 cells
COC(=O)c1ccc2c(c1)C(C)(C)C(/C=C/c1ccc(OC)c(OC)c1OC)=[N+]2C	310 cells
Cc1cc(C)n(-c2nc(N(c3ccccc3)c3ccccc3)nc(-n3nc(C)cc3C)n2)n1	457 cells
CCCn1c(C)cc(/C=C(\C#N)C(=O)OCC(=O)NC(=O)NC(C)(C)C)c1C	484 cells
CCOc1ccc(-c2c(C#N)c(N)nc3sc(C(=O)c4ccccc4)c(N)c23)cc1	1020 cells
COc1cccc2sc(NNC(=O)C3=COCCO3)nc12	1250 cells
O=C(CCl)Nc1ccc(Sc2ccc(NC(=O)CCl)cc2)cc1	306 cells
O=C(Nc1cccc(-c2csc(Nc3cccc(C(F)(F)F)c3)n2)c1)c1cc([N+](=O)[O-])cc(C(F)(F)F)c1	434 cells
Cc1ccc(-n2c(-c3ccc(Br)cc3)c[n+]3c2CCc2ccc4cccnc4c2-3)cc1	98 cells
Cc1cccc(-c2ncc(CN3CCCC(CO)(Cc4ccccc4C)C3)cn2)c1 (centres undefined)	1480 cells
CN1CC=C2C(C#N)=C(N)C(C#N)(C#N)C(c3ccsc3)C2C1 (centres undefined)	1240 cells
O=C(OCn1ncc(Br)c(Br)c1=O)c1c(F)cccc1F	319 cells
CN1/C(=C\C(=O)c2cncc(Br)c2)C(C)(C)c2ccccc21	395 cells
CC(C)(c1ccccc1)c1ccc(OCC(O)CNC2CCN(Cc3ccccc3)CC2)cc1 (centres undefined)	330 cells
COc1ccc(/C=C(\C#N)C(=O)OCC(=O)Nc2c(C)cccc2C(C)C)cc1	1090 cells
CCCc1n[nH]c2c1C(=O)C(C(=O)OC)C(C)(C)C2 (centres undefined)	1240 cells

SMILES	cell count
COc1ccc(N=c2scc(-c3ccc(S(=O)(=O)N4CCOCC4)cc3)n2CCCO)cc1	384 cells
CCS(=O)(=O)c1ccc2oc(SCC(=O)NC3CCCC(C)C3C)nc2c1 (centres undefined)	771 cells
Cc1ccc(NC2=C(Cl)C(=O)c3ccccc3C2=O)cc1	356 cells
CC1=CC(=O)C(C(C)C)=C/C1=N/OS(=O)(=O)c1ccccc1	230 cells
Cc1nc(C)c(C(=O)N/N=C/c2cc(Br)ccc2O)s1	348 cells
O=[N+]([O-])c1ccc(-c2ccc(/C=N/Nc3nc(NCc4ccccc4)nc(N4CCOCC4)n3)o2)cc1	549 cells
CC[N+](CC)(CC#Cc1ccccc1)CC#Cc1ccccc1	424 cells
Fc1ccc2[nH]c3c(N4CCN(Cc5ccc6c(c5)OCO6)CC4)ncnc3c2c1	301 cells
COc1ccc(C(=O)OCCCN(C)C)cc1OC	431 cells
O=C(CCl)N1c2ccccc2OCC1c1ccccc1 (centres undefined)	394 cells
COc1ccc(S(=O)(=O)N2CCN(c3cc(-c4ccccc4)nc4ncnn34)CC2)cc1	330 cells
FC(F)Oc1ccc(-c2c[n+]3c(n2-c2ccccc2)CCCCC3)cc1	405 cells
O=C(CCl)Nc1cccc(-c2cnc3ccccc3n2)c1	416 cells
Cc1ccc(C)c(OCC(O)CN2CCC(CN3C(=O)c4cccc5cccc(c45)C3=O)CC2)c1 (centres undefined)	484 cells
Cc1ccc(S(=O)(=O)Nc2ccc3nc(N)sc3c2)cc1	326 cells
Cn1c2c(c(=O)n(C)c1=O)C(C(F)(F)F)(C(F)(F)F)N=C(c1ccc(Cl)cc1)N2	260 cells
CCCCOc1ccc(Br)cc1CSC(=N)N	486 cells
Cc1cc(-n2c(C)cc(C(=O)CSc3ncnc4ccccc34)c2C)no1	391 cells
COc1ccc(-n2c(-c3ccc(Cl)cc3)c[n+]3c2CCc2ccccc2-3)cc1	356 cells
O=C(C1=NN(c2ccccc2)C2C(=O)N(c3cccc(Cl)c3)C(=O)C12)c1ccccc1 (centres undefined)	1550 cells
O=S(=O)(c1ccccc1)c1nc(-c2ccco2)oc1NCc1cccnc1	358 cells
COc1ccc(-c2cc3nc(C)cc(N4CC(C)CC(C)C4)n3n2)cc1 (centres undefined)	460 cells
Cc1noc(C)c1S(=O)(=O)N1CCN(c2ccccc2)CC1	453 cells
COc1ccc(C(=O)c2c(C(F)(F)F)oc3c2C(=O)c2ccccc2C3=O)cc1OC	352 cells
CC(=O)c1cc(C#N)c(SCC(=O)C(C)(C)C)nc1C	191 cells
COc1cccc(/C=N/Nc2ncnc(Cl)c2N)c1O	457 cells

SMILES	cell count
CCCCCCc1nc2ccccc2c(=O)n1NC(=O)c1c(O)c2c(n(CC(C)C)c1=O)CCCC2	469 cells
CNC(=O)c1ccc(-c2sc3nc(N4CCOCC4)c4c(c3c2N)CC(C)(C)OC4)o1	1240 cells
CCc1cccc2cc3c(N)c(C(=O)Nc4ccc(S(=O)(=O)N5CCCC5)cc4)sc3nc12	1030 cells
Cc1cccc(NC(=O)Nc2ccc(C#N)cc2)n1	1710 cells
N/C(COc1ccc(Cl)cc1)=N\NS(=O)(=O)c1ccccc1	441 cells
O=C(NCC(=O)N(CC1CCCO1)C1(C(=O)NC2CCCC2)CCCCC1)c1ccccc1 (centres undefined)	412 cells
O=C(CN1CCN(c2ncccn2)CC1)Nc1ccccc1-n1cccc1	454 cells
O=C1c2cccc3c(N4CCCCC4)ccc(c23)C(=O)N1c1ccccc1O	1400 cells
Cc1ccc(CNc2ccc3c(c2)OCO3)c(C)c1	1200 cells
Cc1ccnc(N/C=C(\C#N)c2nc(-c3cccc(Br)c3)cs2)c1	1480 cells
CC(C)c1ccccc1-n1c(SCC(=O)N2CCc3ccccc3C2)nc2ccccc2c1=O	386 cells
COc1cccc(Nc2nc(NCC3CCCO3)c3ccccc3n2)c1 (centres undefined)	269 cells
Cc1c(N=C2N=C(NC(=O)c3cccs3)c3ccccc32)c(=O)n(-c2ccccc2)n1C	1390 cells
Cc1cc(C)n(-c2nc(NCCN(C)C)c3c4c(sc3n2)CCCC4)n1	376 cells
COC(=O)c1cc2c(-c3ccccc3)cc3ccccn3c-2c1C(=O)OC	981 cells
O=C(c1cc(-c2cccs2)on1)N1CCN(C(c2ccccc2)c2ccccc2)CC1	466 cells
Cc1ccc2c(c1)nnn2C1CCN(S(=O)(=O)c2ccc(C(=O)N3C(C)CCCC3C)cc2)CC1 (centres undefined)	431 cells
CCCCNc1cc(C)nc(NCc2ccccc2)n1	301 cells
N#C/C(=C\c1ccc([N+](=O)[O-])o1)c1nc2ccccc2[nH]1	440 cells
COc1ccc(C2=Nn3c([n+](C)c4ccccc43)SC2)cc1	394 cells
O=C(/C=C/c1cc(Br)ccc1O)c1ccco1	351 cells
CCCc1[nH]nc2c1C(c1ccc(Br)s1)C(C#N)=C(N)O2 (centres undefined)	496 cells
COc1ccc(C(=O)C[n+]2cc(-c3ccc(OC)cc3)n3c2CCCC3)cc1	430 cells and 489 cells
CC1CCCN(c2ncnc3c2cnn3-c2ccc(Cl)cc2)C1 (centres undefined)	442 cells
Cc1nonc1NC(=O)CSc1nc2c(C)cccc2cc1C#N	1430 cells
CC(C)c1ccc(-n2c(-c3ccccc3)c[n+]3c2CCc2ccccc2-3)cc1	323 cells
